The other results are listed elsewhere or left out. Most values come without repeats; read them as rough.
Key:
Experiment in all cases: cell count relative to DMSO control; melanoma cells; higher = more viable cells
Details in all cases: library dose: low library concentration; 72 h
[1] = system: WM115
[2] = system: WM1716
[3] = system: WM1745
[4] = system: WM3526
[5] = system: WM3619
[6] = system: WM451Lu
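Note: cell number obtained by counting DAPI-stained nuclei in high-throughput microscope images with image analysis software, screen run in 1,536-well plates.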

| SMILES | cell count [1] | cell count [2] | cell count [3] | cell count [4] | cell count [5] | cell count [6] |
| --- | --- | --- | --- | --- | --- | --- |
| C=C(c1ccc(C(=O)O)cc1)c1cc2c(cc1C)C(C)(C)CCC2(C)C [Bexarotene] + Cc1nc(Nc2ncc(C(=O)Nc3c(C)cccc3Cl)s2)cc(N2CCN(CCO)CC2)n1 [dasatanib] (first compound 2 µM, partner dose 0.004 µM) | 86.4% | 78.3% | 70.6% | 80.9% | 81.5% | 81.7% |
| C=C(c1ccc(C(=O)O)cc1)c1cc2c(cc1C)C(C)(C)CCC2(C)C [Bexarotene] + CCCS(=O)(=O)Nc1ccc(F)c(C(=O)c2c[nH]c3ncc(Cl)cc23)c1F [PLX4720] (first compound 2 µM, partner dose 0.08 µM) | 89% | 86.9% | 95.3% | 77.2% | 79.7% | 108% |
| CCCS(=O)(=O)Nc1ccc(F)c(C(=O)c2c[nH]c3ncc(Cl)cc23)c1F + NCC(=O)Nc1ccc(-n2nc(C(F)(F)F)cc2-c2ccc3c(ccc4ccccc43)c2)cc1 [OSU03012] (first compound 0.08 µM, partner dose 1 µM) | 81% | 112% | 43.6% | 52% | 98.1% | 71.2% |
| CS(=O)(=O)c1ccc(C(=O)Nc2ccc(Cl)c(-c3ccccn3)c2)c(Cl)c1 [vismodegib] + CNC(=O)c1cc(Oc2ccc(NC(=O)Nc3ccc(Cl)c(C(F)(F)F)c3)cc2)ccn1 [sorafenib] (first compound 1 µM, partner dose 0.4 µM) | 87.8% | 86.1% | 83.2% | 79.8% | 111% | 122% |
| CN(c1ncccc1CNc1nc(Nc2ccc3c(c2)CC(=O)N3)ncc1C(F)(F)F)S(C)(=O)=O + COc1cc2ncnc(Nc3ccc(Oc4ccccc4)cc3)c2cc1OC [SrcI1] (first compound 0.08 µM, partner dose 2 µM) | 90.1% | 102% | 73.9% | 92.3% | 101% | 52.1% |
| NC1(c2ccc(-c3nc4ccn5c(=O)[nH]nc5c4cc3-c3ccccc3)cc2)CCC1 + Nc1ccn([C@@H]2O[C@H](CO)[C@@H](O)C2(F)F)c(=O)n1 [gemcitabine] (first compound 0.4 µM, partner dose 0.0004 µM) | 77.5% | 84.7% | 85.2% | 85.8% | 75.4% | 99.7% |
| CS(=O)(=O)c1ccc(C(=O)Nc2ccc(Cl)c(-c3ccccn3)c2)c(Cl)c1 [vismodegib] + OCc1c[nH]c2ccccc12 [Indole-3-carbinol] (first compound 1 µM, partner dose 0.8 µM) | 96.9% | 94.7% | 102% | 105% | 83.6% | 106% |
| CN(c1ncccc1CNc1nc(Nc2ccc3c(c2)CC(=O)N3)ncc1C(F)(F)F)S(C)(=O)=O + NC1(c2ccc(-c3nc4ccn5c(=O)[nH]nc5c4cc3-c3ccccc3)cc2)CCC1 [MK2206] (first compound 0.08 µM, partner dose 0.4 µM) | 59.5% | 61.1% | 86.9% | 72.3% | 91.6% | 68.6% |
| CS(=O)(=O)c1ccc(C(=O)Nc2ccc(Cl)c(-c3ccccn3)c2)c(Cl)c1 [vismodegib] + O=C(O)c1ccc2c(c1)nc(Nc1cccc(Cl)c1)c1ccncc12 [CX4945] (first compound 1 µM, partner dose 0.4 µM) | 110% | 99.8% | 100% | 105% | 95.2% | 102% |
| CS(=O)(=O)c1ccc(C(=O)Nc2ccc(Cl)c(-c3ccccn3)c2)c(Cl)c1 [vismodegib] + CN(c1ncccc1CNc1nc(Nc2ccc3c(c2)CC(=O)N3)ncc1C(F)(F)F)S(C)(=O)=O [PF562271] (first compound 1 µM, partner dose 0.08 µM) | 80.1% | 90.2% | 84.7% | 104% | 103% | 69.3% |
| NC1(c2ccc(-c3nc4ccn5c(=O)[nH]nc5c4cc3-c3ccccc3)cc2)CCC1 + COC(=O)c1sccc1S(=O)(=O)Nc1ccc(Nc2ccccc2)cc1OC [GSK0660] (first compound 0.4 µM, partner dose 1 µM) | 79.5% | 95.1% | 96.3% | 71.2% | 110% | 107% |
| CN(c1ncccc1CNc1nc(Nc2ccc3c(c2)CC(=O)N3)ncc1C(F)(F)F)S(C)(=O)=O + COc1cc(N2CCC(N3CCN(C)CC3)CC2)ccc1Nc1ncc(Cl)c(Nc2ccccc2S(=O)(=O)C(C)C)n1 [NVP-TAE684] (first compound 0.08 µM, partner dose 0.08 µM) | 77.5% | 83.5% | 84.5% | 97.6% | 95.5% | 95.1% |
| C=C(c1ccc(C(=O)O)cc1)c1cc2c(cc1C)C(C)(C)CCC2(C)C [Bexarotene] + Nc1cccc2c1CN(C1CCC(=O)NC1=O)C2=O [lenalidomide] (first compound 2 µM, partner dose 1 µM) | 102% | 88.2% | 89.5% | 99.1% | 119% | 81.5% |
| CCCS(=O)(=O)Nc1ccc(F)c(C(=O)c2c[nH]c3ncc(Cl)cc23)c1F + Oc1nc(-c2ccc(C(F)(F)F)cc2)nc2c1CSCC2 [XAV939] (first compound 0.08 µM, partner dose 2 µM) | 94.5% | 74% | 76.6% | 73.8% | 81.9% | 98.6% |
| NC1(c2ccc(-c3nc4ccn5c(=O)[nH]nc5c4cc3-c3ccccc3)cc2)CCC1 + COc1ccc2c(c1)CCC1C2CCC2(C)C(NCCCCCCN3C(=O)C=CC3=O)CCC12 [U73122] (first compound 0.4 µM, partner dose 0.4 µM) | 75.5% | 85.7% | 86.5% | 51.6% | 94.7% | 94.7% |
| C=C(c1ccc(C(=O)O)cc1)c1cc2c(cc1C)C(C)(C)CCC2(C)C [Bexarotene] + NCC(=O)Nc1ccc(-n2nc(C(F)(F)F)cc2-c2ccc3c(ccc4ccccc43)c2)cc1 [OSU03012] (first compound 2 µM, partner dose 1 µM) | 98.8% | 89% | 94% | 52% | 103% | 54.4% |
| CCCS(=O)(=O)Nc1ccc(F)c(C(=O)c2c[nH]c3ncc(Cl)cc23)c1F + OCCn1cc(-c2cnc3nnn(Cc4ccc5ncccc5c4)c3n2)cn1 [PF04217903] (first compound 0.08 µM, partner dose 1 µM) | 98.2% | 113% | 94.4% | 58.2% | 104% | 102% |
| NC1(c2ccc(-c3nc4ccn5c(=O)[nH]nc5c4cc3-c3ccccc3)cc2)CCC1 + CC(C)C[C@H](NC(=O)[C@H](Cc1ccccc1)NC(=O)c1cnccn1)B(O)O [Bortezomib] (first compound 0.4 µM, partner dose 0.001 µM) | 77.1% | 58.7% | 83.1% | 72.4% | 53.9% | 90.6% |
| NC1(c2ccc(-c3nc4ccn5c(=O)[nH]nc5c4cc3-c3ccccc3)cc2)CCC1 + Cn1c(=O)n(-c2ccc(C(C)(C)C#N)cc2)c2c3cc(-c4cnc5ccccc5c4)ccc3ncc21 [NVP-BEZ235] (first compound 0.4 µM, partner dose 0.004 µM) | 66% | 74.8% | 95.8% | 65.8% | 69.4% | 84.2% |
| C=C(c1ccc(C(=O)O)cc1)c1cc2c(cc1C)C(C)(C)CCC2(C)C [Bexarotene] + C=CCn1c(=O)c2cnc(Nc3ccc(N4CCN(C)CC4)cc3)nc2n1-c1cccc(C(C)(C)O)n1 [MK1775] (first compound 2 µM, partner dose 0.02 µM) | 99.3% | 84.7% | 91.6% | 103% | 95.7% | 87% |
| CS(=O)(=O)c1ccc(C(=O)Nc2ccc(Cl)c(-c3ccccn3)c2)c(Cl)c1 [vismodegib] + Cc1cc(N2CCOCC2)cc2[nH]c(-c3c(NC[C@@H](O)c4cccc(Cl)c4)cc[nH]c3=O)nc12 [BMS536924] (first compound 1 µM, partner dose 0.2 µM) | 98.8% | 99.2% | 74.8% | 95.6% | 104% | 93.4% |
| CCCS(=O)(=O)Nc1ccc(F)c(C(=O)c2c[nH]c3ncc(Cl)cc23)c1F + CC(C)(C)c1cnc(CSc2cnc(NC(=O)C3CCNCC3)s2)o1 [SNS-032] (first compound 0.08 µM, partner dose 0.01 µM) | 84.8% | 97.7% | 72.9% | 71.2% | 101% | 107% |
| C=C(c1ccc(C(=O)O)cc1)c1cc2c(cc1C)C(C)(C)CCC2(C)C [Bexarotene] + CC(C)(C)c1cnc(CSc2cnc(NC(=O)C3CCNCC3)s2)o1 [SNS-032] (first compound 2 µM, partner dose 0.01 µM) | 114% | 87.8% | 112% | 93.9% | 105% | 86.3% |
| C=C(c1ccc(C(=O)O)cc1)c1cc2c(cc1C)C(C)(C)CCC2(C)C [Bexarotene] + Oc1cc(-c2nc(-c3ccccc3)[nH]c2-c2ccncc2)ccc1Cl [L779450] (first compound 2 µM, partner dose 0.2 µM) | 93.2% | 98.6% | 105% | 80.5% | 96.9% | 99.5% |
| CCCS(=O)(=O)Nc1ccc(F)c(C(=O)c2c[nH]c3ncc(Cl)cc23)c1F + Cc1cc([N+](=O)[O-])ccc1NS(=O)(=O)c1cc(Cl)ccc1Cl [FH535] (first compound 0.08 µM, partner dose 1 µM) | 80.8% | 98.9% | 89.1% | 66.3% | 72.5% | 98% |
| C=C(c1ccc(C(=O)O)cc1)c1cc2c(cc1C)C(C)(C)CCC2(C)C [Bexarotene] + Cc1ccc(NC(=O)c2cccc(N(C)C)c2)cc1NC(=O)c1ccc(O)cc1 [ZM336372] (first compound 2 µM, partner dose 2 µM) | 88.5% | 101% | 88% | 92.5% | 84.5% | 89.9% |

— the supplement of paper PMC4604168 (melanoma cell lines)
